Data taken from PubChem BioAssay (NCI).
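Protocol summary: plate cells (96-well), add compound at 5 concentrations, incubate 48 h, interpolate endpoints linearly. GI50 marks 50% less growth. The concentration for full growth arrest is given as TGI.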

system: NCI-H322M lung; assay: inhibition of tumour cell growth, NCI panel, 48 h

Row | SMILES | GI50 [nM] | TGI [µM]
1 | CN(C)c1nc(NCCNS(=O)(=O)c2ccc(C(=O)/C=C/c3ccc(C(F)(F)F)cc3)cc2)nc(N2CCOCC2)n1 | 14200 | 27.2
2 | NC(=Nc1ccc(OCCCCCCCCn2cnnn2)cc1)c1ccccc1 | 637 | > 100
3 | Cn1cc(-c2nc(N)nnc2-c2c[nH]c3ccccc23)c2cc(Br)cnc21 | 121 | 16
4 | COc1ccc(CN2[C@@H](C(=O)NCc3ccc(C(=O)NO)cc3)Cc3c([nH]c4ccccc34)[C@@H]2C2CC2)cc1 | 4250 | > 19.8
5 | O=c1[nH]c2ccccc2cc1CSc1ccc(Nc2nccc(-c3ccc(C(F)(F)F)cc3)n2)cc1 | 2770 | 16.8
